From PubChem BioAssay AID1508642 (National Center for Advancing Translational Sciences (NCATS), 2021)
Hit rate of the full screen: of about 43,000 compounds, about 200 (0.47%) were called active. Inconclusive results, whose numbers are uncertain, are shown with a selection of clear calls. Calls come from the whole dose curve; as a rule, active = well fitted cell-killing curve with a large enough effect; inconclusive = small, poorly fitted or top-dose-only effect, or effect the other way; inactive = flat fitted curve, though single readings scatter. A potency beside an inconclusive call is a rough fit, not a confirmed value.

test: Cell viability qHTS assay in S16 Pmp22-F2sN cells; settings: S16 Pmp22-F2sN Schwann cells (luciferase reporters placed in the Pmp22 gene) viability, CellTiter-Glo, 24 h; series mostly up to 57.5 µM; note: nearly all actives have a fitted effect of over 65% in size
Procedure, shortened: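 Seed 500-1,000 S16 Pmp22-F2sN cells per well in phenol-red-free DMEM with 10% heat-inactivated FBS; pin-add 23 nL compound; incubate 24 h at 37C; add CellTiter-Glo, wait 15 min protected from light; read luminescence.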
Potency is the fitted concentration of half-maximal effect; tags give direction and shape of the fitted curve.

Structure (SMILES) | Potency
CCN(CC)S(=O)(=O)c1ccc(NC(=O)c2cc3ccc4cccnc4c3[nH]2)cc1 | inconclusive: 28.2 µM [cytotoxic, partial curve, poor fit]
CCN(CC)C(=O)c1sc2c(c1C)c(=O)n(-c1ccccc1)c(=O)n2Cc1c(C)cc(C)cc1C | inactive
COc1cccc(C2=CC(c3ccccc3F)n3ncc(C(=O)Nc4ccc(C)cc4)c3N2)c1 (stereo unspecified) | inconclusive: 39.8 µM [cytotoxic, single point]
Cc1cc(N2CCN(C)CC2)nc2ccc(NC(=O)Nc3ccccc3)cc12 | inconclusive: 28.2 µM [cytotoxic, single point]
COc1ccc(C2=NN(C(C)=O)C(c3cn(-c4ccccc4)nc3-c3cccs3)C2)cc1 (stereo unspecified) | inconclusive: 39.8 µM [rising, partial curve, poor fit]
Cc1c(C(=O)Nc2ccc(Br)cc2F)oc2ccc(S(=O)(=O)N3CCC4(CC3)OCCO4)cc12 | inactive
CCN(C(=O)CN(C)S(=O)(=O)c1ccc2c(c1)n(C)c(=O)c(=O)n2C)c1cccc(C)c1 | inactive
O=C(c1cccs1)N1CCCc2cc(NS(=O)(=O)c3ccc(Cl)cc3)ccc21 | inconclusive: 31.6 µM [cytotoxic, single point]
O=C(NCCc1ccccc1)C(=O)NCC(c1cccnc1)N1CCN(c2ccc(F)cc2)CC1 (stereo unspecified) | inconclusive: 14.1 µM [cytotoxic, partial curve, poor fit]
CCc1nnc(NC(=O)c2nc(S(C)(=O)=O)ncc2Cl)s1 | inconclusive: 31.6 µM [cytotoxic, partial curve, poor fit]
CC(C)c1ccc(C2=CC(c3cccc(Cl)c3)n3ncnc3N2)cc1 (stereo unspecified) | inconclusive: 39.8 µM [cytotoxic, single point]
CCCN1CCN(c2ncnc3sc(C(=O)Nc4ccc(N(CC)CC)cc4C)c(C)c23)CC1 | inconclusive: 39.8 µM [cytotoxic, single point]
CCc1ccccc1NC(=O)Cn1c(=O)n(Cc2ccco2)c(=O)c2sc3ccccc3c21 | inactive
O=C(NCCS(=O)(=O)N1CCN(c2ccc(F)cc2)CC1)C1CC(=O)N(c2ccc(F)cc2)C1 (stereo unspecified) | inactive
COc1ccc(CCNC(=O)c2ccc3c(Cl)c4c(nc3c2)CCCC4)c(OC)c1 | inconclusive: 10 µM [rising, partial curve]
CS(=O)(=O)N1CCCc2cc(C(=O)Nc3cccc(C(F)(F)F)c3)ccc21 | inconclusive: 39.8 µM [cytotoxic, single point]
CC(=O)c1ccc(N2CCN(c3ncnc4onc(C)c34)CC2)cc1 | inconclusive: 22.4 µM [cytotoxic, partial curve, poor fit]
Cc1ccc(N2CCN(C(=O)c3cc(S(=O)(=O)N4CCCCC4)c[nH]3)CC2)c(C)c1 | inconclusive: 5.01 µM [rising, full curve, poor fit]
COc1ccccc1CNC(=O)Cn1c(=O)oc2cc(S(=O)(=O)NCc3ccccc3)ccc21 | inconclusive: 14.1 µM [cytotoxic, partial curve]
CCOc1ccc(C(=O)NCCn2cc(SCC(=O)Nc3ccccc3)c3ccccc32)cc1 | inconclusive: 35.5 µM [cytotoxic, single point]
CCC1CCCCN1C(=O)c1nn(-c2ccc(OC)cc2)c(=O)c2c1c1ccccc1n2C (stereo unspecified) | inconclusive: 39.8 µM [rising, single point]

Structure (SMILES) | Potency
CC(C)Sc1ncc(Cl)c(C(=O)Nc2ccc(S(=O)(=O)Nc3ncccn3)cc2)n1 | inconclusive: 35.5 µM [cytotoxic, partial curve, poor fit]
Cn1c(=O)cc(SCC(=O)N2CCN(c3ccccc3F)CC2)c2cc(Cl)ccc21 | inactive
COc1ccc(-n2c(=O)c3c(c4cc(OC)ccc4n3C)n(Cc3ccc(F)cc3Cl)c2=O)cc1 | inactive
O=C(CSc1nc(-c2ccc(F)cc2)[nH]c1-c1ccccc1)Nc1ccccc1 | inactive
Cc1c(Cl)cccc1-n1ncc(C(=O)NCc2cccs2)c1C1CCN(C(=O)OC(C)(C)C)CC1 | inconclusive: 28.2 µM [cytotoxic, single point]
COc1ccc(CNC(=O)c2ccc3nc(CCc4ccccc4)oc3c2)c(OC)c1 | inconclusive: 15.8 µM [cytotoxic, partial curve, poor fit]
COc1cc(C2c3c(-c4ccc(C)cc4)n[nH]c3C(=O)N2c2ccc(F)cc2)ccc1O (stereo unspecified) | inconclusive: 39.8 µM [cytotoxic, single point]
Cc1cccc(NC(=O)c2cc(S(=O)(=O)N3CCN(c4ccccc4F)CC3)ccc2F)c1C | inconclusive: 0.562 µM [cytotoxic, full curve, poor fit]
O=C(CN1C(=O)COc2ccc(S(=O)(=O)N3CCCC3)cc21)N1CCN(c2cccc(C(F)(F)F)c2)CC1 | inconclusive: 39.8 µM [cytotoxic, single point]
Cc1cccc(OCC(O)Cn2c(=N)n(CCN3CCCCC3)c3ccccc32)c1 (stereo unspecified) | inconclusive: 39.8 µM [cytotoxic, single point]
CCC(C)NC(=O)CSc1nc2c(sc3ccccc32)c(=O)n1CCc1ccc(OC)c(OC)c1 (stereo unspecified) | inconclusive: 0.178 µM [rising, partial curve, poor fit]
CCC(C)Nc1oc(-c2ccc(COc3ccc(Cl)cc3)o2)nc1C#N (stereo unspecified) | inconclusive: 31.6 µM [cytotoxic, single point]
COc1ccc2nc(NC(=O)c3nc(SCc4ccccc4F)ncc3Cl)sc2c1 | inactive
CCNC(=O)C1CCN(c2nnc(C)c3c(C)n(-c4ccc(OC)cc4)nc23)CC1 | inactive
CCOC(=O)c1c(C)sc(-c2c(-c3ccc4c(c3)OCCO4)[nH]c3c2c(=O)[nH]c(=O)n3C)c1O | inconclusive: 28.2 µM [cytotoxic, single point]
COc1cccc(-n2c(=O)c3sc4ccccc4c3n(CC(=O)Nc3ccc(F)cc3F)c2=O)c1 | inactive
Cc1cc(Nc2sc(C(=O)c3ccc(F)cc3)c(N)c2C(=O)Nc2ccc(F)cc2)ccc1Cl | inconclusive: 28.2 µM [cytotoxic, single point]
Cc1ccc(Cl)cc1N1CCN(CCCNc2ncnc3onc(-c4ccc(F)cc4)c23)CC1 | inconclusive: 20 µM [cytotoxic, single point]
CCOCCCn1c(=N)c(C(=O)NCc2ccco2)cc2c(=O)n3ccccc3nc21 | inactive
O=C(NCCC1=CCCCC1)c1ccc2c(c1)N(Cc1ccc(F)cc1)C(=O)c1ccccc1S2(=O)=O | inactive
CCC(C)NC(=O)c1cn(CC)c2ccc(S(=O)(=O)N3CCCCC3)cc2c1=O (stereo unspecified) | inconclusive: 39.8 µM [cytotoxic, single point]

Structure (SMILES) | Potency
O=C(COc1ccccc1)N(Cc1cccnc1)c1nc2ccc(Cl)cc2s1 | inconclusive: 39.8 µM [cytotoxic, single point]
O=C(Nc1ccc(N2CCC(N3CCCCC3)CC2)c(C(=O)O)c1)c1ccccc1 | inactive
CCn1cc(C(=O)NCc2ccccc2)c(=O)c2cc(S(=O)(=O)N3CCCCC3)ccc21 | inconclusive: 39.8 µM [cytotoxic, single point]
Cc1cc2c(cc3c(SCc4ccc(Cl)cc4)nnc(C)n32)o1 | inconclusive: 31.6 µM [cytotoxic, single point]
COc1cccc(CNC(=O)C(C)n2ccc3cc(S(=O)(=O)N4CCCCCC4)ccc32)c1 (stereo unspecified) | inconclusive: 35.5 µM [cytotoxic, single point]
COc1ccccc1-c1cc(NC(=O)COc2ccccc2Cl)n(-c2ccccc2)n1 | inconclusive: 28.2 µM [rising, single point]
CC(=O)c1cccc(NC(=O)c2noc3c2CSc2ccccc2-3)c1 | inactive
COc1ccc(NC(=O)c2ccc3c(c2)c(C)c(C)n3Cc2ccc(F)cc2)cc1 | inactive
Cc1cc(C)c2c(-n3cccc3)c(C(=O)NCCCN3CCCCC3)sc2n1 | inconclusive: 25.1 µM [rising, partial curve, poor fit]
O=C(Cn1cnc(S(=O)(=O)N2CCCC2)c1)Nc1ccccc1 | inconclusive: 28.2 µM [cytotoxic, single point]
CCCN1CCN(CCCNC(=O)c2ccc3c(c2)sc2nc(-c4ccc(C)cc4)cn23)CC1 | inconclusive: 39.8 µM [cytotoxic, single point]
CC(C)CCNC(=O)CSc1c2c(nc3ccc(Cl)cc13)CCCC2 | inconclusive: 17.8 µM [cytotoxic, partial curve, poor fit]
COC(=O)c1ccc(-n2c(/C=C\c3cccc(Br)c3)nc3ccccc3c2=O)cc1 | inconclusive: 4.47 µM [cytotoxic, partial curve]
O=C(CCNS(=O)(=O)c1ccc2c(c1)CCN2C(=O)C1CC1)N1CCN(c2ccc(F)cc2)CC1 | inconclusive: 25.1 µM [cytotoxic, partial curve, poor fit]
CCn1c2c(c(=O)n3ncc(C(=O)Nc4cccc(Cl)c4C)c13)CN(Cc1ccc(OC)cc1)CC2 | inactive
CCOC(=O)c1c(C)[nH]c(C)c1S(=O)(=O)N1CCC(C(=O)NCc2ccc(C)cc2)CC1 | inconclusive: 11.2 µM [rising, partial curve, poor fit]
O=S(=O)(NCc1ccccc1)c1ccc(-c2cnc(C3CC3)o2)cc1 | inconclusive: 10 µM [cytotoxic, partial curve]
COc1ccc(CNC(=O)CN(c2ccccc2OC)S(=O)(=O)c2ccc(C)cc2)cc1 | inactive
CCN(CC)S(=O)(=O)c1ccc(NC(=O)CCc2c(C)nc3cc(-c4ccc(Cl)cc4)nn3c2C)cc1 | inconclusive: 12.6 µM [cytotoxic, partial curve, poor fit]
